Laboratory results as given in the supplement of paper PMC3334620.
Over roughly 33,000 sequences, “E-score (-0.5 to 0.5)” has its median near -0.013; the highest 2% begin near 0.3. Some of the results follow.

Target: T1, Msn1 (UniProt P22148)
T1 sequence: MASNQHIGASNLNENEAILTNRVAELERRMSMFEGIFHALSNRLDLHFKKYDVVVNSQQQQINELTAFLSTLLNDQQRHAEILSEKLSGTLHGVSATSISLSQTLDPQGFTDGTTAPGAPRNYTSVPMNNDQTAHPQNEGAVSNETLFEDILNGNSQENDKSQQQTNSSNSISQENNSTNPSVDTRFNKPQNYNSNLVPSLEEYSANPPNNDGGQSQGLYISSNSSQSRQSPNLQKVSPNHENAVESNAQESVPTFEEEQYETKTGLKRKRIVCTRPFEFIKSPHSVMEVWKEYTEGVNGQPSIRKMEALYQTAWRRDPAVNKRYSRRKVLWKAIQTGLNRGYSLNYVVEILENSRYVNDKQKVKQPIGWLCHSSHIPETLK
Assay: PBM E-score (8-mer binding enrichment) (E-score (-0.5 to 0.5)); higher = stronger / more preferred TF binding; most listed sequences are background and not binding sites
Details: protein concentration: 200 nM; construct: GST-full length
Description: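 Universal 'all 10-mer' protein binding microarrays (Agilent AMADID 015681) probed with GST-tagged S. cerevisiae TFs (full-length or DBD) made by in vitro transcription/translation (PURExpress), about 100-200 nM. Bound TF was detected with fluorescent anti-GST. Each ungapped 8-mer (which stands for itself and its reverse complement) is scored by the PBM enrichment score (E-score), a modified Wilcoxon-Mann-Whitney statistic from -0.5 to +0.5, computed with the Universal PBM Analysis Suite. Scale: above 0.35 generally sequence-specific binding.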

Sequence	PBM E-score
AAATACAT	0.0274
ACAACTGC	0.125
TAACGACA	0.276
GTAGCTCA	-0.0179
ATCAAAGA	0.0616
GATTCGGC	0.116
CCCTAGAG	-0.0793
GCCTATCC	-0.182
AGCATGTC	0.318
GGATAACA	0.0272
ACGTTCAA	0.0815
ATATTAGG	0.229
AGTACCCC	-0.245
AGGATGGA	0.00513
ATTGCAAT	0.0804
ATCGACAA	0.256
CTTCGAAC	0.0351
GACTCACC	-0.239
GCCACTCA	-0.0732
TATAGGAA	0.0279
CAGTTGTC	0.32
GTATCAGA	-0.0558

Sequence	PBM E-score
GGACTGCA	-0.0495
GACTAGAA	0.0925
CTTGGGTA	0.0613
ATCGGCGG	0.00353
ACATCAGC	-0.0793
CGGACCCC	-0.192
AAACTAAT	0.205
ATCTTCGG	0.146
GTTACAAC	0.0825
ACGTGCCT	-0.148
ATTTGGGA	0.144
ATCCCATC	-0.164
ATGTCAAT	0.233
GTCCCCAC	0.0565
GAGTGGTA	-0.02
AGCCTGCG	-0.0627
AATCGAAC	-0.126
GCAGATTA	-0.0358
CAGTGCCG	-0.0209
CGGGGTAG	-0.22
AATTATTC	0.191
AGAAATTC	0.0525

Sequence	PBM E-score
ACCACCAC	-0.143
AGCTAAGG	-0.267
AAATCGCA	0.072
CCTTGTGA	-0.0976
CGCTGCCC	-0.327
CGGTTTCA	0.0403
CAAGGTGG	0.00095
CACAACGA	-0.00713
ATGGAGGA	-0.0388
GAGGCCTA	-0.137
CTGAGCGA	0.0585
AGGGCGCA	-0.181
CACGTATC	0.0358
CAGGGTCA	-0.105
GGTAAAAC	-0.0157
ACAATCCG	0.23
CTAGCAAG	-0.121
GGAGAACA	0.0888
CAAACCTG	-0.0521
CAGAGAGA	-0.0985
AAATCCAA	0.00404
ATAACTGG	-0.0196

Sequence	PBM E-score
GAAGGAGA	-0.25
GATAGCAA	0.088
ATGCATTA	0.198
AGGACAAT	0.483
ACTGAGCC	0.0458
ACACAGAG	-0.108
CCGTTATA	0.0612
GAGTCAGA	0.00841
AAAAACGG	0.16
CCAATTAA	0.0133
AGTGTTAA	0.0169
ACTAACAG	0.22
AACTCCGA	0.142
CTGTAGAA	-0.0675
AGAGGAAA	0.11
CCGGCTGC	-0.186
CAATAAAA	0.194
AATCTCTG	-0.00942
AGAGAGAA	-0.0619
AAAAGGCC	-0.093
